Results reported in the supplement of paper PMC3334620.
The full ranking holds about 33,000 sequences; the median of “E-score (-0.5 to 0.5)” is about -0.041, and the highest 2% start at about 0.37. Some of the results follow.

These sequences were tested against T1, Ecm22 (UniProt Q05958) (assay: PBM E-score (8-mer binding enrichment) (E-score (-0.5 to 0.5)); higher = stronger / more preferred TF binding; most listed sequences are background and not binding sites). Settings: protein concentration: 200 nM; construct: GST-full length.
T1 sequence: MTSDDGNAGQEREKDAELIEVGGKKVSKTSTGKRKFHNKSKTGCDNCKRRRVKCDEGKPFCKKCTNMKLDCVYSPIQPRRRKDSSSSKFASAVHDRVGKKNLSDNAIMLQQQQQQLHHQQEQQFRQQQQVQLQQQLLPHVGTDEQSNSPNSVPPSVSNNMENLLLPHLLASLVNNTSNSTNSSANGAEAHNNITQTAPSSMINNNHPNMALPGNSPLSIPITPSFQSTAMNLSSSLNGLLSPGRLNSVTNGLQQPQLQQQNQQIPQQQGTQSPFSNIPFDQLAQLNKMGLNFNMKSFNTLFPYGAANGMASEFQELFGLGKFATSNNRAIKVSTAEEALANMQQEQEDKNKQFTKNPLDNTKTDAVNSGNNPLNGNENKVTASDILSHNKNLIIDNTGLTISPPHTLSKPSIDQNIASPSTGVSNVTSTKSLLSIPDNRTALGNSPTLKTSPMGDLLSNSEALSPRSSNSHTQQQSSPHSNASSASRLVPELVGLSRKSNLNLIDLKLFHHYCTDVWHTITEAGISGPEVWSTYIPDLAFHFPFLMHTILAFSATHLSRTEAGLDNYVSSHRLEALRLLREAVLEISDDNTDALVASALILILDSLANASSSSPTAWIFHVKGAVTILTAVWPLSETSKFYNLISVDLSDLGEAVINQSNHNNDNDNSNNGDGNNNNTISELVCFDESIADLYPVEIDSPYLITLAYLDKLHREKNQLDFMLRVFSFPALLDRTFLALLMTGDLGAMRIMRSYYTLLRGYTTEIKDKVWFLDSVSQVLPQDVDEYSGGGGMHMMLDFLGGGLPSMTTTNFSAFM
How it was run: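 Universal all-10-mer Agilent arrays, fresh or stripped once, were converted to double-stranded form by primer extension. GST-tagged yeast transcription factors from PURExpress in vitro transcription/translation, full-length or DNA-binding domain only, were applied at about 100-200 nM and detected with fluorescent anti-GST. After masliner normalisation, the Universal PBM Analysis Suite scored each ungapped eight-base word together with its reverse complement by E-score.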

| Sequence | PBM E-score |
| --- | --- |
| CAGGTTTA | 0.00102 |
| TAAGACGA | 0.0531 |
| ATGAGAAA | -0.132 |
| AGCGATGA | 0.124 |
| GCGCACCC | 0.0829 |
| GCCTGAAA | -0.139 |
| ACACACGG | -0.135 |
| AACCGACC | 0.294 |
| CAACGCAG | -0.063 |
| ATGCTGAG | -0.31 |
| GAATAACC | -0.0393 |
| GAACGTGA | 0.00882 |
| GCCTCGTA | 0.481 |
| ACAGACGC | -0.0563 |
| ACCCTTTC | -0.163 |
| GTAGCCGA | 0.0917 |
| CACCTGCA | -0.141 |
| GACGCTCC | 0.0538 |
| CATGCTAA | -0.216 |
| CGTCGGAG | -0.0534 |
| GGGCGCCC | 0.0232 |
| ATAAACCG | 0.157 |
| CACGTCTC | -0.0104 |
| CTAATGCA | -0.105 |
| AAGACGCC | -0.064 |

| Sequence | PBM E-score |
| --- | --- |
| CTAATATA | 0.132 |
| AGGCCAGG | -0.117 |
| ATCAAAAG | -0.0342 |
| GGCCTACC | -0.163 |
| GCCGTGCA | -0.305 |
| TAACTGGA | -0.136 |
| CCTCGTAC | 0.491 |
| AACTTTTA | 0.163 |
| CCTAGGTC | -0.179 |
| ATGAGTAC | 0.124 |
| CCTCAAAA | -0.178 |
| GCTTTACC | 0.122 |
| CTGTCAAG | 0.00056 |
| GGAACCCC | -0.0773 |
| CTGACAAG | -0.112 |
| ACATCACA | -0.127 |
| GCCGATTA | 0.025 |
| GCGTCAGA | -0.183 |
| AACTACTA | 0.0421 |
| ATTGCCCC | -0.19 |
| CCAGGCCC | -0.0635 |
| CCTACTAC | -0.14 |
| TCAATCGA | 0.0501 |
| ATCCCAAA | -0.138 |
| CAGAGTGG | -0.048 |

| Sequence | PBM E-score |
| --- | --- |
| AGAAACAG | -0.163 |
| ACGTAGTG | -0.206 |
| GATTACCA | 0.0483 |
| AAAGTAGT | -0.273 |
| CATTAGGG | -0.168 |
| AGACGCCT | -0.219 |
| CATATATA | 0.126 |
| GAGCTACA | -0.304 |
| AGGGACCC | -0.213 |
| CGCCGTTC | 0.362 |
| ACGATCGG | 0.274 |
| CCTGAGAC | -0.163 |
| TCCTTTCA | -0.0993 |
| AGTAAAGC | -0.048 |
| AACCGCCG | 0.112 |
| AACAGGAC | -0.0972 |
| AGACAATG | -0.0415 |
| GTGCAATA | -0.0126 |
| AAATGCGC | -0.0587 |
| GATAATGA | 0.0909 |
| GACCCATA | -0.0211 |
| AACCGTTA | 0.0731 |
| AAGAAAGT | 0.08 |
| AGGTGTCC | 0.0273 |
| ACTCACGC | 0.0894 |

| Sequence | PBM E-score |
| --- | --- |
| GGTCATCA | -0.0312 |
| ACTCTATA | 0.0543 |
| CATCGTAA | 0.381 |
| AGGGAGAA | -0.263 |
| CAACCAAA | -0.00251 |
| AACTCTAC | -0.0593 |
| ACAAGTAG | -0.243 |
| CATTGCTA | -0.0185 |
| CCTCTTAA | 0.028 |
| CCACTACA | -0.212 |
| AGTAAGCC | -0.0779 |
| CCAATTCG | 0.0321 |
| AAGGTCTG | -0.177 |
| ATTTCGCA | 0.243 |
| CGTAAGTA | 0.26 |
| AGATAAGC | 0.0456 |
| CCCAAAGG | -0.182 |
| CTCACATC | -0.0426 |
| CTTATCGC | 0.0592 |
| TGGCACCA | -0.213 |
| GACCGCAC | 0.0669 |
| ACGGTTCC | 0.173 |
| GCAGTCCA | -0.121 |
| ATTGTGGG | -0.228 |
| AGCGCGAT | 0.143 |

| Sequence | PBM E-score |
| --- | --- |
| GCTCCGAC | -0.134 |
| ATTCTGCA | 0.0479 |
| ATCTGGGC | -0.191 |
| AGACGTTC | 0.15 |
| ATGCGCCA | -0.0844 |
| CCAAACCG | 0.00287 |
| GTCAAGAC | -0.324 |
| ACCTAAAG | -0.114 |
| ACGGAACT | 0.157 |
| ATCGAAAT | 0.0125 |
| CTGTAATC | -0.11 |
| AGAGATCA | -0.195 |
| CAAGTTCG | 0.0886 |
| ATCGACTA | -0.00258 |
| TATCAGCA | -0.147 |
| ACCCAAGG | -0.00135 |
| TAACGGGA | 0.0527 |
| CAAGATGA | -0.209 |
| CAAGATAA | -0.0793 |
| ATAATGGG | -0.0259 |
| ATATGTAA | -0.0509 |
| CGGACGAC | -0.00457 |
| ACTCCGTA | 0.23 |
| AGACCAGC | -0.283 |
| CCATAAAA | -0.16 |

| Sequence | PBM E-score |
| --- | --- |
| ACAATATG | 0.0505 |
| ACATCACC | -0.0498 |
| AACGCCTG | 0.0753 |
| CACTTACG | 0.291 |
| AATATATT | 0.176 |
| CTTGAACC | -0.136 |
| TCACAGAA | -0.109 |
| GACAGCCA | -0.118 |
| AACGACGC | 0.448 |
| ATCCCTTC | -0.0152 |
| ACTCTCCA | -0.202 |
| CGCCCAAA | -0.0672 |
| CAACCCGC | -0.0355 |
| GCCAGTGA | -0.32 |
| CGCTGAAC | 0.248 |
| AGCCGCCC | -3e-05 |
| CTATACTC | 0.0609 |
| CTCGCGGC | 0.0662 |
| AATTCTTG | -0.0195 |
| AGTCGCAC | 0.214 |
| AGTGAGTG | -0.143 |
| CGATTCCC | -0.0356 |
| ACAAAATA | -0.0601 |
| CGTGTAGC | 0.0709 |
| CCGAACAG | 0.163 |

| Sequence | PBM E-score |
| --- | --- |
| ACTCTAAC | -0.0941 |
| GATGAATC | 0.0346 |
| CCTCGAAG | -0.0058 |
| ATAAAGTC | 0.0605 |
| AGGTTATA | 0.15 |
| GGCTTCAA | -0.106 |
| CCGTAGTA | 0.0616 |
| ATACTGAT | 0.118 |
| GCTGAACA | -0.205 |
| CAGCCGGC | 0.0272 |
| CAGGGTAC | 0.0283 |
| AACCCGAT | 0.121 |
| AGAAGGCT | -0.356 |
| GGGAGTGA | -0.112 |
| CAGCGCTA | -0.0704 |
| TACGGTAA | 0.339 |
| CCTGACCC | -0.117 |
| CTAACCAA | 0.0258 |
| GACCCCTC | -0.205 |
| GACCACAC | -0.0613 |
| GCGCGCGC | 0.104 |
| GGCCCTAC | -0.244 |
